# The campaign covered roughly 43,000 compounds. About 200 (0.47%) were called active. Another 12% or so got no clear call; they are omitted. Calls come from the whole dose curve; as a rule, active = well fitted cell-killing curve with a large enough effect; inconclusive = small, poorly fitted or top-dose-only effect, or effect the other way; inactive = flat fitted curve, though single readings scatter. This is one part of the list.
# Experiment: Cell viability qHTS assay in S16 Pmp22-F2sN cells; note: nearly all actives have a fitted effect of over 65% in size
# Conditions: S16 Pmp22-F2sN Schwann cells (luciferase reporters placed in the Pmp22 gene) viability, CellTiter-Glo, 24 h; series mostly up to 57.5 µM; activity change, negative = cytotoxicity: at the top concentration
# Method in brief: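 Seed 500-1,000 S16 Pmp22-F2sN cells per well in phenol-red-free DMEM with 10% heat-inactivated FBS; pin-add 23 nL compound; incubate 24 h at 37C; add CellTiter-Glo, wait 15 min protected from light; read luminescence.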
# % is set by controls: 0 for no effect and ±100 for the full control effect.
row,SMILES,"activity change, negative = cytotoxicity"
1,O=C(NCc1ccccc1Cl)c1ccc2c(c1)ncn2-c1cccc(F)c1,inactive: -0.316%
2,Brc1cccc(-c2nn(-c3ccccc3)c3c2cnc2cc4c(cc23)OCO4)c1,inactive: 19.6%
3,O=C(c1cccs1)N1CCCc2cc(NS(=O)(=O)c3ccc(Br)cc3)ccc21,inactive: -22.4%
4,CCc1cccc(C)c1NC(=O)C1CCN(S(=O)(=O)c2cc(Br)cc3c2N(C(C)=O)CC3)CC1,inactive: 11.7%
5,COc1ccc(NC(=O)Nc2cccc(-c3noc(C)n3)c2)cc1,inactive: -1.88%
6,Cc1ccc(C)c(CN2CCC(CNC(=O)C(CC(C)C)N3Cc4ccccc4C3=O)CC2)c1 (stereo unspecified),inactive: -17.1%
7,COCCn1c(CNC(=O)c2ccccc2C)nc2cccnc21,inactive: 7.36%
8,CCc1ccc(C2c3c(-c4cc(C)ccc4O)n[nH]c3C(=O)N2CCO)cc1 (stereo unspecified),inactive: 6.06%
9,COc1ccc(NC(=O)CCCS(=O)(=O)c2nc(-c3ccccc3OC)cc(C(F)(F)F)n2)c(OC)c1,inactive: 25.1%
10,CC1=C(c2ccc(C(C)C)cc2)S(=O)(=O)NC1=NCc1ccc(OC(C)C)cc1,inactive: 1.7%
11,CCCSc1nc2sc3c(c2c(=O)n1-c1ccc(C)cc1)CCCC3,inactive: 11.6%
12,CCOC(=O)c1c(S(=O)(=O)NCC(=O)Nc2cccc(SC)c2)c(C)n(C)c1C,inactive: 6.4%
13,Cc1ccc(C(=O)NCC(=O)OCc2cc(=O)n3nc(C4CC4)sc3n2)cc1,inactive: 11%
14,O=C(Nc1cccc(-c2nc3ccccc3[nH]2)c1)c1c(F)cccc1F,inactive: -11.9%
15,COc1ccc(S(=O)(=O)Cc2ccc(C(=O)N3CCN(c4cc(C)ccc4C)CC3)o2)cc1,inactive: 12.8%
16,O=C(O)c1cccnc1SCc1cccc(Cl)c1,inactive: 1.5%
17,CCSc1ncc(Cl)c(C(=O)N(Cc2ccc(C(C)(C)C)cc2)C2CCS(=O)(=O)C2)n1 (stereo unspecified),inactive: -22.4%
18,COc1ccc2c(c1)c1c(c(=O)n(Cc3ccccc3)c(=O)n1Cc1ccccc1)n2C,inactive: -0.316%
19,CCCNC(=O)c1c(NC(=O)c2ccc(C)cc2)sc2c1CCCCC2,inactive: -0.568%
20,CC(=O)N1CCOc2cc(S(=O)(=O)Nc3cc(C(F)(F)F)ccc3Cl)c(C)cc21,inactive: 8.73%
21,Cc1ccc(-c2noc(-c3nnn(CC(=O)Nc4cccc(C(F)(F)F)c4)c3N)n2)cc1,inactive: -7.81%
22,CCOC(=O)c1c(C)oc2nc(C)nc(NCCCN3CCN(c4cc(Cl)ccc4C)CC3)c12,inactive: 10.3%
23,Cc1ccccc1Cn1c(=O)n(CCCCC(=O)NCc2ccccc2Cl)c(=O)c2ccccc21,inactive: 6.46%
24,O=C(NCc1ccccc1Cl)c1ccc(NC(=O)c2nsc3ccccc23)cc1,inactive: -9.55%

row,SMILES,"activity change, negative = cytotoxicity"
1,CC(C)CNC(=O)c1c(-c2ccccc2)c(-c2ccccc2)nn(C)c1=O,inactive: -5.93%
2,COc1ccc2c(c1)CC(NC(=O)Nc1ccc(NC(C)=O)cc1)CO2 (stereo unspecified),inactive: 0.288%
3,CCOc1cc(C)c(C(C)C)cc1S(=O)(=O)n1ccnc1CC,inactive: -12.8%
4,CCOc1ccc(NC(=O)C2CCN(S(=O)(=O)c3ccc4c(c3)oc(=O)n4C)CC2)cc1,inactive: 3.71%
5,CCOc1ccc2nc(N3CCC(C(=O)Nc4ccc(Br)cc4F)CC3)sc2c1,inactive: -23.2%
6,O=C(CSc1nnc(-c2ccncc2)n1-c1ccccc1)Nc1ccc(Br)cc1,inactive: 3.68%
7,Cc1ccccc1OCC(=O)Nc1c(C)ccc2nsnc12,inactive: -15.7%
8,CC(C)c1ccc(S(=O)(=O)c2nnn3c2nc(N2CCOCC2)c2sccc23)cc1,inactive: -6.32%
9,CC1CCN(S(=O)(=O)c2ccc3c(ccn3CC(=O)NCc3ccc(N(C)C)cc3)c2)CC1,inactive: -20.1%
10,Cc1ccc(NC(=O)C2CCN(C(=O)c3cnn(-c4ccccc4)c3-n3cccc3)CC2)cc1,inactive: -9.68%
11,CCOC(=O)N1CCc2c(sc3c2c(=O)n(-c2ccc(CC)cc2)c(=O)n3CC(=O)c2ccccc2)C1,inactive: -20%
12,COc1ccc(CCC(=O)NCc2nc3cccnc3n2Cc2cccc(OC)c2)cc1,inactive: 9.36%
13,COc1ccc(Cl)cc1NC(=O)Cn1nc(C(F)(F)F)c2c1CCC2,inactive: 25.6%
14,CCCCc1nn2c(=O)cc(COC(=O)C(C)Oc3ccccc3)nc2s1 (stereo unspecified),inactive: 7.1%
15,CC(NC(=O)c1ccc(CSc2nc3ccncc3n2Cc2ccc(F)cc2)cc1)c1ccccc1 (stereo unspecified),inactive: -29.3%
16,Cc1cccc(OCCCSc2nc(-c3ccc(C(C)(C)C)cc3)nc3cc(=O)[nH]n23)c1C,inactive: 1.1%
17,COCCNC(=O)c1ccc2c(c1)N(Cc1ccc(C(F)(F)F)cc1)C(=O)c1ccccc1S2,inactive: -1.55%
18,CCCCCn1c(=O)[nH]c2cc(C(=O)NCc3ccc(F)cc3)ccc2c1=O,inactive: 8.82%
19,Cc1cccc(-n2c(=O)c3c(c4cc(C)ccc4n3C)n(CC(=O)Nc3ccccc3Cl)c2=O)c1,inactive: 3.98%
20,Cc1cc(Br)ccc1NC(=O)c1coc(=O)c2ccccc12,inactive: 4.45%
21,CC(C)c1ccccc1NC(=O)CSc1nnc(COc2ccccc2)o1,inactive: 23.6%
22,Cc1ccc(CNC(=O)CN(C)S(=O)(=O)c2ccc(Br)s2)cc1,inactive: -5.31%
23,Cc1oc2ncn(CC(C)C)c(=O)c2c1C(=O)Nc1cccc(C(F)(F)F)c1,inactive: -1.64%
24,O=C(Nc1ccc(Cl)c(Cl)c1)c1cc(S(=O)(=O)N2CCN(c3cccc(Cl)c3)CC2)ccc1F,inactive: -0.636%

row,SMILES,"activity change, negative = cytotoxicity"
1,COc1ccc(-c2cn(-c3ccc(C)cc3)c(S(=O)(=O)CC(=O)Nc3ccccc3)n2)cc1,inactive: -17.9%
2,CCOc1ccccc1CNC(=O)CCCN1C(=O)COc2ccc(C)cc21,inactive: -13.8%
3,CCCOc1ccc(C(=O)NCC(c2ccc(OC)cc2)N2CCCCC2)cc1 (stereo unspecified),inactive: 11.6%
4,CC(C)NC(=O)Cn1ccc2cc(S(=O)(=O)N3CCCCCC3)ccc21,inactive: -3.24%
5,CC(C)OCCCn1c(SCC(N)=O)nc2c(sc3ccccc32)c1=O,inactive: 16.1%
6,Cc1nn(CCC(=O)NCc2cccc(Br)c2)c(=O)c2nn(-c3ccccc3)c(C)c12,inactive: -11.4%
7,O=C(NCCCCc1ccccc1)c1nn(-c2ccccc2F)nc1CO,inactive: -7.17%
8,CCn1c(=O)c2sccc2n2c(CCC(=O)N3CCN(c4ccccc4OC)CC3)nnc12,inactive: 16.9%
9,COc1ccc(-c2nnc(SCC(=O)Nc3ccccc3C)o2)cc1OC,inactive: 9.92%
10,O=C(c1cccs1)c1cn(CCOc2ccc(F)cc2)c2ccccc12,inactive: 6.1%
11,CCOC(=O)c1c(C)[nH]c(C)c1S(=O)(=O)NCC(=O)Nc1ccc(CC)cc1,inactive: -15.1%
12,CCc1ccccc1NC(=O)c1cc2sc(Cl)cc2n1CC,inactive: -2.23%
13,COc1ccc2c(c1)CCc1c(C(=O)Nc3c(C)nn(Cc4c(Cl)cccc4Cl)c3C)noc1-2,inactive: -8.65%
14,CCOC(=O)c1noc2ncn(CC(=O)Nc3cc(Cl)ccc3OC)c(=O)c12,inactive: 0.688%
15,O=C(O)Cc1sc(Nc2ccc(C(=O)O)cc2)nc1-c1ccccc1,inactive: 9.14%
16,O=C(Cn1cnc2onc(-c3ccc(F)cc3)c2c1=O)N1CCN(c2ccccc2F)CC1,inactive: 8.24%
17,COc1ccc(CNC(=O)C2CCN(S(=O)(=O)c3c(C)noc3/C=C/c3cccs3)CC2)cc1,inactive: 4.65%
18,Cc1ccccc1NC(=O)CCOc1ccccc1,inactive: 4.08%
19,COc1cc2ccccc2cc1C(=O)Nc1cccc(-c2nc3ccccc3o2)c1,inactive: -6.94%
20,COc1ccc(N2CCN(C(=O)c3cn(C)c4ccc(S(=O)(=O)N(C)C5CCCCC5)cc4c3=O)CC2)cc1,inactive: -0.268%
21,Cn1cc(-c2cc3n(n2)CCC(=O)N3CCCC(=O)Nc2ccccc2Cl)c2ccccc21,inactive: 1.36%
22,COc1cc(-c2nc3ccc(Cl)cn3c2Nc2ccc3c(c2)OCO3)ccc1O,inactive: -26.3%
23,Cc1ccc(NC(=O)c2cc(CN3CCOCC3)on2)cc1Cl,inactive: 3.79%
24,Nc1nn(-c2ccccc2)nc1C(=O)OCc1ccccc1Br,inactive: 2.41%

row,SMILES,"activity change, negative = cytotoxicity"
1,Cc1cccc(N2CCN(C(=O)CN3C(=O)COc4ccc(S(=O)(=O)N5CCCC5)cc43)CC2)c1C,inactive: 21.2%
2,N#C/C(=C\c1c(Oc2ccc(F)cc2)nc2ccccn2c1=O)c1nc2ccccc2s1,inactive: -5.4%
3,Cc1oc(-c2cccc(Br)c2)nc1CSc1nc2ncccc2[nH]1,inactive: 1.7%
4,CCCOc1ccc(C(=O)Nc2sc3c(c2C(=O)OCC)CCCCC3)cc1,inactive: 1.43%
5,O=C1CC(c2ccc(F)cc2)c2c(n3c(nc4ccccc43)[nH]c2=O)N1 (stereo unspecified),inactive: 5.68%
6,CCc1ccc(CNC(=O)C2CCN(C(=O)c3ccc(-n4ccc5ccccc54)s3)CC2)cc1,inactive: 2.04%
7,CCOc1ccc(N(C(=O)c2ccc(OC)cc2)S(=O)(=O)c2ccc3c(c2)n(C)c(=O)n3C)cc1,inactive: -11.3%
8,O=C(NCc1cccnc1)C1CCN(Cc2cc3ccccc3n2Cc2ccccc2)CC1,inactive: -22.2%
9,CCOC(=O)c1cc(OC(=O)c2cccc(F)c2)n(-c2ccccc2)n1,inactive: 3.12%
10,CC(=O)N1CCCc2ccc(NC(=O)c3ccc(C(F)(F)F)cc3)cc21,inactive: 1.41%
11,Cc1ccccc1-c1noc(-c2ccc(N3CCCC3)c([N+](=O)[O-])c2)n1,inactive: 19.4%
12,Cc1cc(C)cc(NC(=O)CSc2nnc(CNC(=O)c3c(F)cccc3Cl)o2)c1,inactive: -1.2%
13,CCN(CC)S(=O)(=O)c1ccc2c(c1)N(CC(=O)Nc1c(C)cc(C)cc1C)C(=O)CS2,inactive: 5.15%
14,COC(=O)c1cc2oc(C)cc2n1Cc1ccc(C)cc1,inactive: 9.1%
15,CC(C)c1ccc(NC(=O)CN2C=NS(=O)(=O)c3ccccc32)cc1,inactive: 2%
16,COc1ccc(-c2nnc(SCC(=O)c3ccc([N+](=O)[O-])cc3)o2)cc1OC,inactive: -0.712%
17,COc1ccc2c(c1)Cc1sc(NC(=O)c3ccc(Cl)cc3)nc1-2,inactive: -5.59%
18,Cc1cccn2c(=O)c3cc(C(=O)NC(C)c4ccccc4)c(=N)n(CCOCCO)c3nc12 (stereo unspecified),inactive: 5.26%
19,O=C(NCc1ccccc1Cl)C(=O)NCC(c1cccs1)S(=O)(=O)c1ccccc1 (stereo unspecified),inactive: -10.6%
20,N#C/C(=C\c1ccc(-c2ccc(Cl)c(C(=O)O)c2)o1)c1nc2ccccc2[nH]1,inactive: 3.13%
21,CC(C)C(=O)c1cc2c(cc1NC(=O)c1ccccc1F)OCCO2,inactive: -4.2%
22,Cc1ccc(COc2cccc3cc(-c4noc(-c5ccc(C)cc5)n4)c(=O)oc23)cc1,inactive: -1.18%
23,Cc1ccc(C(=O)c2oc3ccccc3c2NC(=O)COc2ccc(C(C)(C)C)cc2)cc1,inactive: 21.9%
24,Cc1ccc(NC(=O)Cn2cnc3c(oc4ccccc43)c2=O)cc1,inactive: -2.45%

# From PubChem BioAssay AID1508642 (National Center for Advancing Translational Sciences (NCATS), 2021)
